Data as given in the supplement of paper PMC7125110.
± gives the standard error. Variants at the floor of the assay are shown more often than the library holds them.

B1: glmS ribozyme (parent)
chain: AUAAAAGCGCCAGAACUACAGAAAUGUAGUUGACGAGGAGGAGGUUUAUCGAAUUUUCGGCGGAUGCCUCCAAA

What was measured:
Conditions in all cases: with glucosamine-6-phosphate
[1] = variants of: B1; assay: self-cleavage kobs at 640 uM GlcN6P; higher = faster cleavage; RNA array
Summary of the method: (§1)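 Glucosamine-6-phosphate (40 μM to 10 mM) in HEPES/KCl/Mg(OAc)2 buffer was flowed over sequenced MiSeq chips, and tiles were imaged over ~14 h. Barcoded ribozyme variants there had been transcribed in situ by E. coli RNA polymerase and were tracked through a hybridised Cy3 probe at 37 °C. One- or two-exponential decay fits to per-tile medians, normalised to baseline and to non-cleaving reference variants, gave kobs. kcat and KM came from weighted Michaelis–Menten fits across concentrations.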

[2] = variants of: B1; assay: self-cleavage kobs at 2500 uM GlcN6P; higher = faster cleavage; RNA array
Summary of the method: as §1

[3] = variants of: B1; assay: self-cleavage kobs at 40 uM GlcN6P; higher = faster cleavage; RNA array
Summary of the method: as §1

[4] = variants of: B1; assay: self-cleavage kobs at 10000 uM GlcN6P; higher = faster cleavage; RNA array
Summary of the method: as §1

[5] = variants of: B1; assay: self-cleavage kobs at 160 uM GlcN6P; higher = faster cleavage; RNA array
Summary of the method: as §1

Row | Variant | self-cleavage kobs at 640 uM GlcN6P [1] [s⁻¹] | self-cleavage kobs at 2500 uM GlcN6P [2] [s⁻¹] | self-cleavage kobs at 40 uM GlcN6P [3] [s⁻¹] | self-cleavage kobs at 10000 uM GlcN6P [4] [s⁻¹] | self-cleavage kobs at 160 uM GlcN6P [5] [s⁻¹]
1 | G7A U31G G59C C67A | < 1e-05 | < 1e-05 | – | – | –
2 | G7A G9C A33U G66C | < 1e-05 | < 1e-05 | – | – | –
3 | C8U G13U U31G A53C | < 1e-05 | – | – | – | –
4 | A6C G32C A33U C61U G63C C70U | < 1e-05 | < 1e-05 | – | – | –
5 | C8G A15U A36G G44A | < 1e-05 | < 1e-05 | – | – | –
6 | G62A C70U | – | – | < 1e-05 | < 1e-05 | –
7 | C8U C34U A39C | < 1e-05 | < 1e-05 | – | – | –
8 | C8U U47G | < 1e-05 | – | – | – | –
9 | A6C U57A C61U | < 1e-05 | < 1e-05 | – | – | –
10 | G63C C67A | < 1e-05 | – | < 1e-05 | < 1e-05 | –
11 | G7U G43U | < 1e-05 | – | – | < 1e-05 | < 1e-05
12 | G7U G9C U31C U45C | < 1e-05 | < 1e-05 | – | – | –
13 | C8U A52U G60U C68U | < 1e-05 | – | – | – | –
14 | G7U C8G G38C | < 1e-05 | – | – | – | –
15 | G7U A42C G59U | < 1e-05 | < 1e-05 | – | < 1e-05 | < 1e-05
16 | G7A C16G G26U G29A C34A G59C | < 1e-05 | < 1e-05 | – | – | –
17 | A6G C34G G51U G63A | < 1e-05 | < 1e-05 | – | – | < 1e-05
18 | G7A U55A | < 1e-05 | – | – | – | –
19 | A6U U30G G62U | < 1e-05 | – | – | – | < 1e-05
20 | C8G A53U G59A | < 1e-05 | – | – | – | –

Row | Variant | self-cleavage kobs at 640 uM GlcN6P [1] [s⁻¹] | self-cleavage kobs at 2500 uM GlcN6P [2] [s⁻¹] | self-cleavage kobs at 40 uM GlcN6P [3] [s⁻¹] | self-cleavage kobs at 10000 uM GlcN6P [4] [s⁻¹] | self-cleavage kobs at 160 uM GlcN6P [5] [s⁻¹]
21 | G7U G9A C16U G29A A53U G59A G66A U69G | < 1e-05 | – | – | – | < 1e-05
22 | A6C U31A C58G | < 1e-05 | < 1e-05 | – | – | –
23 | A6G G32C G38A U55C | < 1e-05 | < 1e-05 | – | – | –
24 | C8G C11U A15U G29C G41U | < 1e-05 | – | – | < 1e-05 | –
25 | G7A C67A | < 1e-05 | – | – | – | < 1e-05
26 | A6U C11U G40C U57C | < 1e-05 | < 1e-05 | – | – | < 1e-05
27 | C8A G37C G38A C70U | < 1e-05 | – | – | – | –
28 | G63U G66A | < 1e-05 | – | < 1e-05 | < 1e-05 | –
29 | C8G A53C U55C U65C C71A | < 1e-05 | – | – | < 1e-05 | –
30 | G7C U69A C70U | < 1e-05 | – | – | – | –
31 | G7C U31A G35U U65G | < 1e-05 | < 1e-05 | – | < 1e-05 | < 1e-05
32 | G9A G44U C70U | < 1e-05 | – | – | – | –
33 | G7C A48C | < 1e-05 | < 1e-05 | – | < 1e-05 | < 1e-05
34 | A6U C8U C16G G40A G59A C61G C71U | < 1e-05 | – | – | – | –
35 | G9A C16G G43U A52G A53U | < 1e-05 | – | – | – | –
36 | G7C A15G G40U G41A C67U | < 1e-05 | – | – | – | –
37 | G7C C10G A15C C16A U54A | < 1e-05 | < 1e-05 | – | – | –
38 | G7A G40U C58U | < 1e-05 | < 1e-05 | – | – | –
39 | C8A G9A A14C A42U A53U A64U | < 1e-05 | < 1e-05 | – | – | –
40 | G9C A53U G59U | < 1e-05 | < 1e-05 | – | – | –

Row | Variant | self-cleavage kobs at 640 uM GlcN6P [1] [s⁻¹] | self-cleavage kobs at 2500 uM GlcN6P [2] [s⁻¹] | self-cleavage kobs at 40 uM GlcN6P [3] [s⁻¹] | self-cleavage kobs at 10000 uM GlcN6P [4] [s⁻¹] | self-cleavage kobs at 160 uM GlcN6P [5] [s⁻¹]
41 | A6C C10U A42C U56C | < 1e-05 | – | – | – | –
42 | G7C C34U G40C | < 1e-05 | < 1e-05 | – | – | –
43 | A6U G29C U49A | < 1e-05 | – | – | – | –
44 | A6C A15C G35A | < 1e-05 | < 1e-05 | – | – | –
45 | C8G C10U G60U | < 1e-05 | – | – | < 1e-05 | < 1e-05
46 | A6U G7C G13U A36C | < 1e-05 | – | – | – | –
47 | C8G A48U C61U C70U | < 1e-05 | < 1e-05 | – | – | –
48 | A6C G37U U56C | < 1e-05 | < 1e-05 | – | – | –
49 | G7U G29U U46C | < 1e-05 | < 1e-05 | – | < 1e-05 | –
50 | G9C A12C G29C G37U | < 1e-05 | – | – | – | –
51 | G9A G38C U56G G63A C68G | < 1e-05 | < 1e-05 | – | – | < 1e-05
52 | G7U G13U A15U C50A G51A G60U C67A C71A | 0.000375 ± 0.00012 | – | – | – | –
53 | G7C G29U C70A | < 1e-05 | – | – | – | < 1e-05
54 | G62C G63U | – | < 1e-05 | < 1e-05 | – | < 1e-05
55 | G7A G37U U45G | < 1e-05 | – | – | – | –
56 | C8U G32U C68A | < 1e-05 | – | – | – | –
57 | G7A C10G A14U C50U U55G | < 1e-05 | – | – | – | < 1e-05
58 | G9C A39U | < 1e-05 | < 1e-05 | – | < 1e-05 | < 1e-05
59 | C8U C11U U55A G62A | < 1e-05 | < 1e-05 | – | – | –
